Measurements from the supplement of paper PMC11125491.
± gives the standard deviation of the averaged measurements. Growth of baker's yeast expressing single-residue variants of Pneumocystis jirovecii dihydrofolate reductase in 8.8 or 44 µM methotrexate (about 75% and 90% inhibition of the wild type). Selection coefficient per generation; 0 = like wild type, above 0 = less sensitive, below 0 = more sensitive or loss of function. No active / inactive call per row; the paper calls resistant above 0.220 (8.8 µM) or 0.243 (44 µM) together with a significance test. At 44 µM about 15% of codons end with one read or none, so the lowest values are floors (replicate rank correlation 0.74; 0.94 at 8.8 µM).

B1: UniProt A0EPZ9; numbered along this chain (parent)
chain: MDWQKSLTLIVALTLSRGIGLKNDLPWKLKSDMMFFSRVTSGLLVTRSTGQMNVVLMGRKTWESLPAHSRPLKNRINVVISRQEVLDLGGGAYHARSLDDALALLSQIYDSTSKIQLNRVFVIGGGELCKAAMEHSRLNRIIATVIHNEVDCDVFFPIDFRSSQSCLPWRKQDHSVLEAWVGSKVPQGKINENGFIYEFEMWIRDI

Variants of: B1
Test: selection coefficient against synonymous wild-type codons (log2 per generation); higher = faster growth than wild type
Details: with Saccharomyces cerevisiae carrying the variant on a plasmid
Procedure: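 Pooled growth of yeast carrying single-residue variants of P. jirovecii dihydrofolate reductase (own DFR1 gene intact), two passages at 30 °C, three cultures, sequenced before and after. Codons with under 15 starting reads are left out; codons of one change are averaged.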

Variant	selection coefficient against synonymous wild-type codons (log2) (methotrexate 8.8 µM)	selection coefficient against synonymous wild-type codons (log2) (methotrexate 44 µM)
MDWQKSLTLIVALTLSRGIGLKNDLPWKLKSDMMFFSRVTSGLLVTRSTGQMNVVLMGRKTWESLPAHSRPLKNRINVVISRQEVLDLGGGAYHARSLDDALALLSQIYDSTSKIQLNRVFVIGGGELCKAAMENSRLNRIIATVIHNEVDCDVFFPIDFRSSQSCLPWRKQDHSVLEAWVGSKVPQGKINENGFIYEFEMWIRDI [H135N]	-0.0576 ± 0.084	0.0259 ± 0.14
MDWQKSLTLIVALTLSRGIGLKNDLPWKLKSDMMFFSRVTSGLLVTRSTGQMNVVLMGRKTWESLPAHSRPLKNRINVVISRQEVLDLGGGAYHARSLDDALALLSQIYDSTSKIQLNRVFVIGGGELCKAAMEPSRLNRIIATVIHNEVDCDVFFPIDFRSSQSCLPWRKQDHSVLEAWVGSKVPQGKINENGFIYEFEMWIRDI [H135P]	-0.553 ± 0.25	-0.124 ± 0.22
MDWQKSLTLIVALTLSRGIGLKNDLPWKLKSDMMFFSRVTSGLLVTRSTGQMNVVLMGRKTWESLPAHSRPLKNRINVVISRQEVLDLGGGAYHARSLDDALALLSQIYDSTSKIQLNRVFVIGGGELCKAAMEQSRLNRIIATVIHNEVDCDVFFPIDFRSSQSCLPWRKQDHSVLEAWVGSKVPQGKINENGFIYEFEMWIRDI [H135Q]	-0.181 ± 0.03	-0.162 ± 0.2
MDWQKSLTLIVALTLSRGIGLKNDLPWKLKSDMMFFSRVTSGLLVTRSTGQMNVVLMGRKTWESLPAHSRPLKNRINVVISRQEVLDLGGGAYHARSLDDALALLSQIYDSTSKIQLNRVFVIGGGELCKAAMERSRLNRIIATVIHNEVDCDVFFPIDFRSSQSCLPWRKQDHSVLEAWVGSKVPQGKINENGFIYEFEMWIRDI [H135R]	-0.288 ± 0.066	-0.272 ± 0.11
MDWQKSLTLIVALTLSRGIGLKNDLPWKLKSDMMFFSRVTSGLLVTRSTGQMNVVLMGRKTWESLPAHSRPLKNRINVVISRQEVLDLGGGAYHARSLDDALALLSQIYDSTSKIQLNRVFVIGGGELCKAAMESSRLNRIIATVIHNEVDCDVFFPIDFRSSQSCLPWRKQDHSVLEAWVGSKVPQGKINENGFIYEFEMWIRDI [H135S]	0.0415 ± 0.041	0.0844 ± 0.1
MDWQKSLTLIVALTLSRGIGLKNDLPWKLKSDMMFFSRVTSGLLVTRSTGQMNVVLMGRKTWESLPAHSRPLKNRINVVISRQEVLDLGGGAYHARSLDDALALLSQIYDSTSKIQLNRVFVIGGGELCKAAMETSRLNRIIATVIHNEVDCDVFFPIDFRSSQSCLPWRKQDHSVLEAWVGSKVPQGKINENGFIYEFEMWIRDI [H135T]	-0.0913 ± 0.06	-0.133 ± 0.14
MDWQKSLTLIVALTLSRGIGLKNDLPWKLKSDMMFFSRVTSGLLVTRSTGQMNVVLMGRKTWESLPAHSRPLKNRINVVISRQEVLDLGGGAYHARSLDDALALLSQIYDSTSKIQLNRVFVIGGGELCKAAMEVSRLNRIIATVIHNEVDCDVFFPIDFRSSQSCLPWRKQDHSVLEAWVGSKVPQGKINENGFIYEFEMWIRDI [H135V]	-0.377 ± 0.054	0.0467 ± 0.46
MDWQKSLTLIVALTLSRGIGLKNDLPWKLKSDMMFFSRVTSGLLVTRSTGQMNVVLMGRKTWESLPAHSRPLKNRINVVISRQEVLDLGGGAYHARSLDDALALLSQIYDSTSKIQLNRVFVIGGGELCKAAMEWSRLNRIIATVIHNEVDCDVFFPIDFRSSQSCLPWRKQDHSVLEAWVGSKVPQGKINENGFIYEFEMWIRDI [H135W]	-0.181 ± 0.059	-0.12 ± 0.13
MDWQKSLTLIVALTLSRGIGLKNDLPWKLKSDMMFFSRVTSGLLVTRSTGQMNVVLMGRKTWESLPAHSRPLKNRINVVISRQEVLDLGGGAYHARSLDDALALLSQIYDSTSKIQLNRVFVIGGGELCKAAMEYSRLNRIIATVIHNEVDCDVFFPIDFRSSQSCLPWRKQDHSVLEAWVGSKVPQGKINENGFIYEFEMWIRDI [H135Y]	-0.0963 ± 0.029	-0.0302 ± 0.14
MDWQKSLTLIVALTLSRGIGLKNDLPWKLKSDMMFFSRVTSGLLVTRSTGQMNVVLMGRKTWESLPAHSRPLKNRINVVISRQEVLDLGGGAYHARSLDDALALLSQIYDSTSKIQLNRVFVIGGGELCKAAMEHARLNRIIATVIHNEVDCDVFFPIDFRSSQSCLPWRKQDHSVLEAWVGSKVPQGKINENGFIYEFEMWIRDI [S136A]	-0.00258 ± 0.02	-0.139 ± 0.16
MDWQKSLTLIVALTLSRGIGLKNDLPWKLKSDMMFFSRVTSGLLVTRSTGQMNVVLMGRKTWESLPAHSRPLKNRINVVISRQEVLDLGGGAYHARSLDDALALLSQIYDSTSKIQLNRVFVIGGGELCKAAMEHCRLNRIIATVIHNEVDCDVFFPIDFRSSQSCLPWRKQDHSVLEAWVGSKVPQGKINENGFIYEFEMWIRDI [S136C]	0.00655 ± 0.034	-0.00998 ± 0.1
MDWQKSLTLIVALTLSRGIGLKNDLPWKLKSDMMFFSRVTSGLLVTRSTGQMNVVLMGRKTWESLPAHSRPLKNRINVVISRQEVLDLGGGAYHARSLDDALALLSQIYDSTSKIQLNRVFVIGGGELCKAAMEHDRLNRIIATVIHNEVDCDVFFPIDFRSSQSCLPWRKQDHSVLEAWVGSKVPQGKINENGFIYEFEMWIRDI [S136D]	-0.0566 ± 0.045	-0.0677 ± 0.08
MDWQKSLTLIVALTLSRGIGLKNDLPWKLKSDMMFFSRVTSGLLVTRSTGQMNVVLMGRKTWESLPAHSRPLKNRINVVISRQEVLDLGGGAYHARSLDDALALLSQIYDSTSKIQLNRVFVIGGGELCKAAMEHERLNRIIATVIHNEVDCDVFFPIDFRSSQSCLPWRKQDHSVLEAWVGSKVPQGKINENGFIYEFEMWIRDI [S136E]	0.0357 ± 0.033	0.0387 ± 0.017
MDWQKSLTLIVALTLSRGIGLKNDLPWKLKSDMMFFSRVTSGLLVTRSTGQMNVVLMGRKTWESLPAHSRPLKNRINVVISRQEVLDLGGGAYHARSLDDALALLSQIYDSTSKIQLNRVFVIGGGELCKAAMEHFRLNRIIATVIHNEVDCDVFFPIDFRSSQSCLPWRKQDHSVLEAWVGSKVPQGKINENGFIYEFEMWIRDI [S136F]	0.0694 ± 0.033	0.16 ± 0.09
MDWQKSLTLIVALTLSRGIGLKNDLPWKLKSDMMFFSRVTSGLLVTRSTGQMNVVLMGRKTWESLPAHSRPLKNRINVVISRQEVLDLGGGAYHARSLDDALALLSQIYDSTSKIQLNRVFVIGGGELCKAAMEHGRLNRIIATVIHNEVDCDVFFPIDFRSSQSCLPWRKQDHSVLEAWVGSKVPQGKINENGFIYEFEMWIRDI [S136G]	-0.0383 ± 0.043	-0.0841 ± 0.12
